Experimental data as given in the supplement of paper PMC8948288.
Shown are siRNA guide strands that differ only in the seed, positions 2 to 7.

Experiments:
[1] = system: GL261; experiment: cell viability relative to siNT1 (ATP content); H4 human neuroglioma and GL261 mouse glioma; higher = less toxic; settings: siRNA concentration 25 nM; 96 h; mouse
Description: (§1)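 Arrayed screen of all 4096 6mer seeds. Each seed sits at guide-strand positions 2-7 of a neutral 19mer siRNA backbone (siNT1-based, passenger strand 2'-O-methyl modified at positions 1-2 to block RISC loading, 3' DNA overhangs). The guide strand is built here as U + seed + ACAUGUAAACCA. Cells were reverse transfected in triplicate in 384-well plates (H4 at 10 nM, GL261 at 25 nM) with Lipofectamine RNAiMAX. Viability was read as ATP content (CellTiter-Glo) 96 h after transfection and normalised to siNT1 (%).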

[2] = system: H4; experiment: as above; settings: siRNA concentration 10 nM; 96 h; human
Description: as §1
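Also: cells reverse transfected with siRNA duplexes via lipid reagent, ATP read by luminescence, triplicate wells, values scaled to mean viability with non-targeting control siNT1.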

Sequence	cell viability [1] [%]	cell viability [2] [%]
UACCCGAACAUGUAAACCA	67.6	113
UACCCGCACAUGUAAACCA	45.2	28.8
UACCCGGACAUGUAAACCA	66.5	71.9
UACCCGUACAUGUAAACCA	62	102
UACCCUAACAUGUAAACCA	66.8	117
UACCCUCACAUGUAAACCA	40.2	41.8
UACCCUGACAUGUAAACCA	54.3	95.2
UACCCUUACAUGUAAACCA	71.2	77
UACCGAAACAUGUAAACCA	59.9	106
UACCGACACAUGUAAACCA	45.4	66.6
UACCGAGACAUGUAAACCA	70.9	111
UACCGAUACAUGUAAACCA	54.1	119
UACCGCAACAUGUAAACCA	64.7	79.2
UACCGCCACAUGUAAACCA	30.8	35.7
UACCGCGACAUGUAAACCA	65.8	102
UACCGCUACAUGUAAACCA	38.6	81.5
UACCGGAACAUGUAAACCA	51.6	68.6
UACCGGCACAUGUAAACCA	30.4	79.2
UACCGGGACAUGUAAACCA	46.7	97.2
UACCGGUACAUGUAAACCA	49.3	106
UACCGUAACAUGUAAACCA	54.5	111
UACCGUCACAUGUAAACCA	22.2	83.7

Sequence	cell viability [1] [%]	cell viability [2] [%]
UACCGUGACAUGUAAACCA	64.1	76.4
UACCGUUACAUGUAAACCA	58.2	80.9
UACCUAAACAUGUAAACCA	70.9	110
UACCUACACAUGUAAACCA	51.8	78
UACCUAGACAUGUAAACCA	49.1	75
UACCUAUACAUGUAAACCA	58.8	65.1
UACCUCAACAUGUAAACCA	56.2	66.5
UACCUCCACAUGUAAACCA	22.3	41.3
UACCUCGACAUGUAAACCA	41.5	89.7
UACCUCUACAUGUAAACCA	34.6	46
UACCUGAACAUGUAAACCA	53.8	99.1
UACCUGCACAUGUAAACCA	21.8	8.8
UACCUGGACAUGUAAACCA	38.9	65.7
UACCUGUACAUGUAAACCA	34.6	53.2
UACCUUAACAUGUAAACCA	55.9	95.3
UACCUUCACAUGUAAACCA	38.6	77.8
UACCUUGACAUGUAAACCA	49	67.2
UACCUUUACAUGUAAACCA	21.3	35.8
UACGAAAACAUGUAAACCA	71.8	79.8
UACGAACACAUGUAAACCA	59.7	93.9
UACGAAGACAUGUAAACCA	69	82.3
UACGAAUACAUGUAAACCA	58.6	97.6

Sequence	cell viability [1] [%]	cell viability [2] [%]
UACGACAACAUGUAAACCA	63.8	89.6
UACGACCACAUGUAAACCA	44.6	68.6
UACGACGACAUGUAAACCA	58.6	90
UACGACUACAUGUAAACCA	55	64.2
UACGAGAACAUGUAAACCA	57.9	79.6
UACGAGCACAUGUAAACCA	39.9	75.7
UACGAGGACAUGUAAACCA	63	69.6
UACGAGUACAUGUAAACCA	36.6	83.2
UACGAUAACAUGUAAACCA	57.5	96.3
UACGAUCACAUGUAAACCA	69.4	80
UACGAUGACAUGUAAACCA	59.3	77.9
UACGAUUACAUGUAAACCA	54.9	104
UACGCAAACAUGUAAACCA	68	116
UACGCACACAUGUAAACCA	46.2	89
UACGCAGACAUGUAAACCA	62.6	74.3
UACGCAUACAUGUAAACCA	45.7	105
UACGCCAACAUGUAAACCA	57.4	82.2
UACGCCCACAUGUAAACCA	35	62.2
UACGCCGACAUGUAAACCA	63.9	106
UACGCCUACAUGUAAACCA	44.4	89.9
UACGCGAACAUGUAAACCA	60.9	110
UACGCGCACAUGUAAACCA	45.6	89.6

Sequence	cell viability [1] [%]	cell viability [2] [%]
UACGCGGACAUGUAAACCA	39.9	67.4
UACGCGUACAUGUAAACCA	58.3	76.9
UACGCUAACAUGUAAACCA	65.2	86.8
UACGCUCACAUGUAAACCA	25.9	92.2
UACGCUGACAUGUAAACCA	68.3	105
UACGCUUACAUGUAAACCA	59.1	116
UACGGAAACAUGUAAACCA	59.4	96.8
UACGGACACAUGUAAACCA	28.5	50.5
UACGGAGACAUGUAAACCA	61.7	81.4
UACGGAUACAUGUAAACCA	54.1	84.2
UACGGCAACAUGUAAACCA	63.4	66.9
UACGGCCACAUGUAAACCA	18.2	55.3
UACGGCGACAUGUAAACCA	52	78.5
UACGGCUACAUGUAAACCA	35.9	37.9
UACGGGAACAUGUAAACCA	56.8	80.6
UACGGGCACAUGUAAACCA	17.8	57.9
UACGGGGACAUGUAAACCA	41.7	51.9
UACGGGUACAUGUAAACCA	36.5	59
UACGGUAACAUGUAAACCA	52.7	80.3
UACGGUCACAUGUAAACCA	28.4	40.7
